{"source": "PubChem BioAssay AID1030", "about": "(National Center for Advancing Translational Sciences (NCATS), 2008)", "note": "The whole screen tested about 220,000 compounds, of which about 16,000 (7.3%) were called active. Inconclusive results, whose numbers are uncertain, are shown with a selection of clear calls. The call rests on the fitted dose curve; in most records, active means well fitted inhibition curve with a large enough effect (not every such curve was filed as active); inconclusive means small, poorly fitted or top-dose-only effect, or another doubt; inactive means no such curve, though single readings can be large or run the other way. Potencies of inconclusive entries are left out as doubtful fits. Potency means the concentration at half of the fitted maximal effect; tags describe the fitted curve by direction and shape."}
{"target": "Aldehyde dehydrogenase 1A1 (Homo sapiens) (UniProt P00352)", "sequence (P00352 whole entry, looked up)": "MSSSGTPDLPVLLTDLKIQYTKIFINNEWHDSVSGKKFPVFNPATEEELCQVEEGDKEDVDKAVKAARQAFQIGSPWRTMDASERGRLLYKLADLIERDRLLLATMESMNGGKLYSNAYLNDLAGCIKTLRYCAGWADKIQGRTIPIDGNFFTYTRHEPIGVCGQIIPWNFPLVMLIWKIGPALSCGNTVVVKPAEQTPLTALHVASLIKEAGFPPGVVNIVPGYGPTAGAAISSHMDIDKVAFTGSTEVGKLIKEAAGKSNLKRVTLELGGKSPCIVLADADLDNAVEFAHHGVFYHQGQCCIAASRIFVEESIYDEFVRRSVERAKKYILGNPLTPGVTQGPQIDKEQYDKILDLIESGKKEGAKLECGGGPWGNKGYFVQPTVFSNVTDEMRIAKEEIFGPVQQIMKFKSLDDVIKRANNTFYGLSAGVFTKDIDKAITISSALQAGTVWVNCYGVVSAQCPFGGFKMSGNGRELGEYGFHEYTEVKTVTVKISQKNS", "test": "qHTS Assay for Inhibitors of Aldehyde Dehydrogenase 1 (ALDH1A1);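 on activity, negative = inhibition: plate controls were no enzyme wells and a reference inhibitor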", "settings": "Purified ALDH1A1, NADH fluorescence, propionaldehyde substrate; series mostly up to 75.3 µM; activity, negative = inhibition: at the top concentration"}
{"smiles": "C(#CC12CC3CC(CC(C3)C1)C2)CN1CCOCC1", "activity, negative = inhibition": "inactive: -10.4%"}
{"smiles": "CCN(CC)CCn1c(=S)[nH]c2cc(C(=O)N3CC=C(c4ccccc4)CC3)ccc2c1=O", "Potency": "inconclusive [inhibitor, single point]"}
{"smiles": "COc1ccc(CCC(=O)N2CCN(C3CCCCC3)CC2)cc1", "Potency": "inconclusive [inhibitor, single point]"}
{"smiles": "CCn1c(CCC(=O)Nc2nc3c(s2)CCCC3)nc2cc(S(=O)(=O)N(C)C)ccc21", "Potency": "active: 15.8 µM"}
{"smiles": "CCn1c(SCC(=O)NCC2CCCO2)nnc1-c1ccc(S(=O)(=O)N2CCN(C)CC2)cc1", "note": "(centres undefined)", "Potency": "inconclusive [inhibitor, single point]"}
{"smiles": "CCOC(=O)c1[nH]c2ccc(OC)cc2c1C", "Potency": "inconclusive [inhibitor, single point]"}
{"smiles": "CCNc1ncc2nc(-c3ccc(OC)cc3)c(=O)n(C[C@H]3CCCO3)c2n1", "Potency": "inconclusive [inhibitor, partial curve]"}
{"smiles": "CCn1c(=O)c2[nH]c(-c3ccccc3)nc2n(CC)c1=O", "Potency": "inconclusive [inhibitor, partial curve]"}
{"smiles": "CCCC(NC(=O)CCl)c1ccccc1", "note": "(centres undefined)", "activity, negative = inhibition": "inactive: 2.08%"}
{"smiles": "CCOC(=O)C1=C(c2ccccc2)OC(N)=C(C#N)C1c1ccc(Cl)s1", "note": "(centres undefined)", "Potency": "active: 1.78 µM"}
{"smiles": "CCn1c(SCC(=O)NC2CCCCC2)nnc1-c1cccs1", "Potency": "inconclusive [inhibitor, single point]"}
{"smiles": "COC(=O)c1ccc(C2NC(C(=O)O)CS2)cc1", "note": "(centres undefined)", "Potency": "inconclusive [inhibitor, single point]"}
{"smiles": "CCOC(=O)c1c(NC(=O)c2cccnc2)sc(C(C)=O)c1C", "Potency": "inconclusive [inhibitor, single point]"}
{"smiles": "COc1ccc2c(c1)c(=O)oc1cc(O)ccc12", "activity, negative = inhibition": "inactive: -4.16%"}
{"smiles": "CCC(Sc1nc2ccc(C)cc2[nH]1)C(=O)O", "note": "(centres undefined)", "Potency": "inconclusive [inhibitor, partial curve]"}
{"smiles": "N#Cc1c(-c2ccccc2)no[n+]1[O-]", "Potency": "active: 5.01 µM"}
{"smiles": "COc1ccc(-c2csc(NC(=O)CC(C)C)n2)cc1", "Potency": "inconclusive [inhibitor, single point]"}
{"smiles": "COc1ccc(C(CNC(=O)c2cncc(Br)c2)N(C)C)cc1", "note": "(centres undefined)", "activity, negative = inhibition": "inactive: -7.33%"}
{"smiles": "CCc1cc2c(SCC(=O)c3ccccc3)ncnc2s1", "Potency": "inconclusive [inhibitor, single point]"}
{"smiles": "CCn1c(=O)cc(N2CCCCC2)[nH]c1=O", "Potency": "inconclusive [inhibitor, single point]"}
{"smiles": "Cc1cc(/C=C2\\SC(=S)NC2=O)c(C)n1C1CC1", "Potency": "inconclusive [inhibitor, partial curve]"}
{"smiles": "CCOC(=O)Cn1c2ccc(F)cc2c2nc(C)sc21", "Potency": "inconclusive [inhibitor, single point]"}
{"smiles": "Fc1ccccc1C1c2[nH]c3ccccc3c2CCN1Cc1cccn1-c1ncccn1", "note": "(centres undefined)", "activity, negative = inhibition": "inactive: -3.62%"}
{"smiles": "O=C(CSc1ccccn1)C12CC3CC(CC(C3)C1)C2", "activity, negative = inhibition": "inactive: -19.2%"}
{"smiles": "Cc1ccc2c(c1)CC1(CN2C)C(=O)OC2(CCCCC2)OC1=O", "Potency": "inconclusive [inhibitor, single point]"}
{"smiles": "COc1ccc(Cl)cc1NC(=S)Nc1ccccc1C", "activity, negative = inhibition": "inactive: -13.3%"}
{"smiles": "CCC(C)(C)n1nnnc1C(c1ccc(O)c(OC)c1)N1CCc2ccccc2C1", "note": "(centres undefined)", "Potency": "inconclusive [inhibitor, single point]"}
{"smiles": "Cc1ccc(S(=O)(=O)N/N=C/c2cccc([N+](=O)[O-])c2)cc1", "Potency": "inconclusive [inhibitor, single point]"}
{"smiles": "S=c1[nH]nc(-c2ccccn2)n1/N=C/c1c(Cl)cccc1Cl", "Potency": "active: 17.8 µM"}
{"smiles": "CCN1CCN(Cc2ccc(NC(=O)Nc3ccccc3OC)cc2)CC1", "activity, negative = inhibition": "inactive: 5.55%"}
{"smiles": "CCN(CC)c1ccc(-c2nc3cnccn3c2NC2CCCC2)cc1", "Potency": "inconclusive [inhibitor, single point]"}
{"smiles": "CC(C)(Oc1ccc(CCNC(=O)c2ccc(-c3ccc(Cl)cc3)o2)cc1)C(=O)O", "Potency": "inconclusive [inhibitor, single point]"}
{"smiles": "O=C(Nc1cccc(-c2nnc(-c3ccccc3)o2)c1)C1CCCO1", "note": "(centres undefined)", "Potency": "inconclusive [inhibitor, single point]"}
{"smiles": "COc1cccc(NC(=O)COC(=O)c2c(F)cccc2Cl)c1", "Potency": "inconclusive [inhibitor, single point]"}
{"smiles": "NC1=NC(=Nc2cccc(Cl)c2)c2ccccc21", "activity, negative = inhibition": "inactive: 5.25%"}
{"smiles": "CS(=O)(=O)Nc1ccccc1C(=O)Nc1ccc2c(c1)OCCO2", "Potency": "inconclusive [inhibitor, single point]"}
{"smiles": "COc1ccc2c(c1OC)C(Cc1ccccc1)N1CCc3cc4c(cc3C1=C2)OCO4", "note": "(centres undefined)", "Potency": "inconclusive [inhibitor, partial curve]"}
{"smiles": "COc1ccc(S(=O)(=O)Nc2nnc(CC(C)(C)C)s2)cc1", "Potency": "active: 11.2 µM"}
{"smiles": "COc1cccc(OC)c1C(=O)Nc1nc(COc2ccccc2)cs1", "Potency": "inconclusive [inhibitor, single point]"}
{"smiles": "CCOC(=S)SCc1cn2ccccc2n1", "Potency": "inconclusive [inhibitor, single point]"}
{"smiles": "COc1cc(-c2nnc3n(CCc4ccccc4)c(=O)c4ccccc4n23)cc(OC)c1OC", "Potency": "active: 0.224 µM"}
{"smiles": "CCN(CC)c1ccc(NC(=S)Nc2ccc(F)cc2)cc1", "Potency": "active: 11.2 µM"}
{"smiles": "O=C(NCCC1=CCCCC1)C1CCN(S(=O)(=O)c2ccccc2)CC1", "Potency": "inconclusive [inhibitor, single point]"}
{"smiles": "COC(=O)c1cc(NC(=O)CSc2nc(C)cc(=O)[nH]2)cc(C(=O)OC)c1", "activity, negative = inhibition": "inactive: 1.11%"}
{"smiles": "N#CC(c1ccc(O)cc1)N1CCOCC1", "note": "(centres undefined)", "Potency": "active: 7.94 µM"}
{"smiles": "O=C(CSc1n[nH]c(-c2ccccc2)n1)NC(=O)NCc1ccco1", "activity, negative = inhibition": "inactive: -5.54%"}
{"smiles": "COc1ccccc1/C=C/C=N/n1c(-c2ccc(Cl)cc2)n[nH]c1=S", "Potency": "active: 11.2 µM"}
{"smiles": "Clc1ccc(Nc2ncnc3ccc(Br)cc23)cc1", "Potency": "inconclusive [inhibitor, single point]"}
{"smiles": "CCOC(=O)c1sc2nc(C(C)C)c3c(c2c1N)CC(C)(C)OC3", "Potency": "inconclusive [inhibitor, partial curve]"}
{"smiles": "O=C(Cc1c[nH]c2ccccc12)Nc1ccc(N2CCOCC2)cc1", "Potency": "inconclusive [inhibitor, single point]"}
{"smiles": "CCOC(=O)c1c(NC(=O)OC)sc2c1CCC2", "activity, negative = inhibition": "inactive: -13.5%"}
{"smiles": "CCN(C(=O)CN1CCN(c2ccccc2)CC1)c1c(N)n(Cc2ccccc2)c(=O)[nH]c1=O", "Potency": "inconclusive [inhibitor, single point]"}
{"smiles": "CC(=O)c1c(C)nc2ccc(Br)cc2c1-c1ccccc1", "Potency": "inconclusive [inhibitor, partial curve]"}
{"smiles": "CCOc1ccc(-c2csc(NC(=O)CSC3=NC(=O)CN3C(C)=O)n2)c2ccccc12", "Potency": "inconclusive [inhibitor, single point]"}
{"smiles": "Nc1nc(-c2ccc3ccccc3c2)c(C2(O)C(=O)Nc3c(Br)cc(F)cc32)s1", "note": "(centres undefined)", "Potency": "inconclusive [inhibitor, single point]"}
{"smiles": "Cc1cc(C=C2C(=O)c3ccccc3C2=O)c(C)n1-c1ccccc1", "Potency": "active: 15.8 µM"}
{"smiles": "COc1ccc(-c2cnnc(N/N=C/c3ccc(O)c(OC)c3)n2)cc1", "activity, negative = inhibition": "inactive: 3.43%"}
{"smiles": "CCNc1nn2ccccc2c1/C=C(\\C#N)C(=O)OCC", "Potency": "inconclusive [inhibitor, partial curve, poor fit]"}
{"smiles": "CCCOc1ccc(/C=N/NC(=O)CSc2ccccn2)cc1OC", "Potency": "inconclusive [inhibitor, partial curve]"}
{"smiles": "Cc1ccc(C)c(-n2c(-c3ccc4c(c3)OCO4)n[nH]c2=S)c1", "Potency": "inconclusive [inhibitor, partial curve]"}
{"smiles": "Cc1cccc(-c2nnc(-c3ccc(N)cc3)o2)c1", "Potency": "inconclusive [inhibitor, partial curve]"}
{"smiles": "O=[N+]([O-])c1ccc(N2CCN(S(=O)(=O)Cc3ccccc3)CC2)cc1N1CCOCC1", "Potency": "inconclusive [inhibitor, single point]"}
{"smiles": "CCOc1ccc2nc(NCCCNS(=O)(=O)c3ccc(C)cc3)c(C#N)cc2c1", "Potency": "inconclusive [inhibitor, partial curve]"}
{"smiles": "COc1ccc(-c2nc(CN3CCN(c4ccccc4OC)CC3)c(C)o2)cc1", "activity, negative = inhibition": "inactive: 6.6%"}
{"smiles": "CC(=O)NCCNc1ncnc2ccc(-c3ccc(C(=O)N(C)C)cc3)cc12", "Potency": "inconclusive [inhibitor, partial curve]"}
{"smiles": "COc1ccc(C(=O)O/N=C(/c2ccccc2)c2ccncc2)cc1", "Potency": "inconclusive [inhibitor, partial curve]"}
{"smiles": "CCc1ccc(N2C(=O)CC(N3CCC(C(=O)OC)CC3)C2=O)cc1", "note": "(centres undefined)", "Potency": "inconclusive [inhibitor, single point]"}
{"smiles": "c1ccc(-c2nc(NCc3ccco3)c3ccccc3n2)nc1", "Potency": "inconclusive [inhibitor, single point]"}
{"smiles": "Cc1ccc(-n2c(C)cc(/C=C(\\C#N)C(=O)NCC3CCCO3)c2C)cc1", "note": "(centres undefined)", "Potency": "active: 3.16 µM"}
{"smiles": "COCCN=C1NN=C(c2ccc(C)c([N+](=O)[O-])c2)CS1", "Potency": "inconclusive [inhibitor, single point]"}
{"smiles": "CC(C)c1ccc(NC(=O)c2cccnc2)cc1", "activity, negative = inhibition": "inactive: -8.57%"}
{"smiles": "Cc1ccc(C2CC(=O)c3cnc(N4CCN(c5ccccc5)CC4)nc3C2)cc1", "note": "(centres undefined)", "activity, negative = inhibition": "inactive: -2.44%"}
{"smiles": "CN1CCN(C(=O)C2=C[C@H](C(C)(C)C)C[C@H](OCCCCO)O2)CC1", "activity, negative = inhibition": "inactive: -15.9%"}
{"smiles": "Cc1cc(NS(=O)(=O)c2ccc(NC(=S)NC(=O)c3ccc(Br)cc3)cc2)no1", "Potency": "inconclusive [inhibitor, single point]"}
